# Data from the supplement of paper PMC7826260.
# The other results are listed elsewhere or left out. Each Rep nickase domain was tested in vitro on the same pool of single strands (3 µM enzyme, 1 h, 37 °C); shown is the middle of each 90-letter strand. Numbers give uncut DNA relative to the enzyme-free pool, as log2; the lower, the more was cut; hits are not called. Shares of all reads are compared; where an enzyme cuts many sequences, the uncut ones exceed 0.
# Assays:
# Experiment in all cases: uncleaved DNA left, log2 of reads against the no-enzyme library (log2 ratio); higher = less cleavage (more negative = more Rep cleavage of the k-mer); sequences stand for … in CTCGTCCG…ACCGGAGA
# [1] = tested on: T1, Rep nickase domain of Muscovy duck circovirus
# T1 sequence (Rep 1-111, printed without the tag): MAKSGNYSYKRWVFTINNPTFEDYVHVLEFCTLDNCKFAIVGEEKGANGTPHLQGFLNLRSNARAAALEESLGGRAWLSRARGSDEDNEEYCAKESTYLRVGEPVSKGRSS
# Method: (§1)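 A pool of 90-nt single-stranded DNAs with seven random bases just before the constant AC of the nick site (name = the seven bases) was cut by 3 µM recombinant His6-SUMO-tagged Rep nickase domain (300 nM DNA, 50 mM HEPES pH 8.0, 50 mM NaCl, 1 mM MnCl2, 1 h, 37 °C, three replicates). Uncut DNA was amplified and sequenced.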
# [2] = tested on: T2, Rep nickase domain of banana bunchy top virus
# T2 sequence (Rep 1-94, printed without the tag): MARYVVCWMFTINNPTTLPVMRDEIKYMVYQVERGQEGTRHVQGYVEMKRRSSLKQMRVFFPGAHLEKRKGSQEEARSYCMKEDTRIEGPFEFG
# Method: as §1
# [3] = tested on: T3, Rep nickase domain of cabbage leaf curl virus
# T3 sequence (Rep 1-116, printed without the tag): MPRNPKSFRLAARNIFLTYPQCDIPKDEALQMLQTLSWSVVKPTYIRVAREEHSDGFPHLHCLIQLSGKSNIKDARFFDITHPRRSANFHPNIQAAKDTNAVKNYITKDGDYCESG
# Method: as §1
# [4] = tested on: T4, Rep nickase domain of chickpea chlorotic dwarf virus
# T4 sequence (Rep 1-124, printed without the tag): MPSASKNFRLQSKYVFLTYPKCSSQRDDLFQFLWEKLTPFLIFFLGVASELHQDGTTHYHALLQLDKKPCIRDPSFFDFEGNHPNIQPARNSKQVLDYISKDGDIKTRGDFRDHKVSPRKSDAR
# Method: as §1
# [5] = tested on: T5, Rep nickase domain of faba bean necrotic yellows virus
# T5 sequence (Rep 1-98, printed without the tag): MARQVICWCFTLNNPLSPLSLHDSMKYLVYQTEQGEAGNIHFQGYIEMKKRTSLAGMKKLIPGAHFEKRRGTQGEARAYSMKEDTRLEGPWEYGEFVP
# Method: as §1
# [6] = tested on: T6, Rep nickase domain of maize striate mosaic virus
# T6 sequence (Rep 1-117, printed without the tag): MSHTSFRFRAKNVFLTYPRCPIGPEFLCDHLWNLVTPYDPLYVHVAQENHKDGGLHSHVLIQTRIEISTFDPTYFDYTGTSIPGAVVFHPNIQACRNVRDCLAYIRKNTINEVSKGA
# Method: as §1
# [7] = tested on: T7, Rep nickase domain of porcine circovirus 2
# T7 sequence (Rep 2-116, printed without the tag): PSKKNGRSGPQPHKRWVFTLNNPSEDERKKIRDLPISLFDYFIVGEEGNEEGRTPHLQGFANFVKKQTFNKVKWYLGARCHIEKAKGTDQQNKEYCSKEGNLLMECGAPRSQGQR
# Method: as §1
# [8] = tested on: T8, Rep nickase domain of tomato yellow leaf curl virus
# T8 sequence (Rep 1-136, printed without the tag): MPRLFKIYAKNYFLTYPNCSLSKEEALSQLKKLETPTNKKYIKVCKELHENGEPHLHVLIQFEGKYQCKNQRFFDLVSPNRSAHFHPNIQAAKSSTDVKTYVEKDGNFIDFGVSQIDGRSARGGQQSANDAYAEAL
# Method: as §1
# [9] = tested on: T9, Rep nickase domain of wheat dwarf virus
# T9 sequence (Rep 1-137, printed without the tag): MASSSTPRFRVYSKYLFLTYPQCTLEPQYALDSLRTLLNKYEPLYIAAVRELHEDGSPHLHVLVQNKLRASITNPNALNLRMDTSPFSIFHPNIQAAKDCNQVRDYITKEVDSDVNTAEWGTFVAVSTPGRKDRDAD
# Method: as §1
Sequence,uncleaved DNA left (log2) [1],uncleaved DNA left (log2) [2],uncleaved DNA left (log2) [3],uncleaved DNA left (log2) [4],uncleaved DNA left (log2) [5],uncleaved DNA left (log2) [6],uncleaved DNA left (log2) [7],uncleaved DNA left (log2) [8],uncleaved DNA left (log2) [9]
TGAGATA,0.0441,0.0381,0.0922,-0.288,0.00277,0.556,0.0206,-0.0848,0.0227
CGCGCAA,-0.143,-0.0377,-0.26,-0.0374,-0.0216,-0.271,-0.181,-0.0816,-0.0939
TCGCGTG,-0.0413,-0.0961,-0.545,-0.816,0.0412,-0.789,0.0918,-0.172,-0.153
TTCGTTC,0.0177,-0.109,0.228,-0.489,0.0935,-0.448,0.0338,-0.0554,0.102
AGGACTC,-0.0616,-0.0671,0.469,1.45,-0.0534,1.86,0.083,0.0569,0.162
TCACCTA,-0.103,-0.102,-0.046,-1.15,-0.0847,-0.57,-0.419,-0.124,-0.0777
CCTCTGT,0.0546,0.0395,-0.0693,-0.428,-0.122,-0.436,-0.191,0.0814,-0.0378
CCACGGG,-0.00415,0.108,-0.177,-0.0414,-0.0631,-0.656,0.119,0.0234,-0.017
CAAAGTT,-0.18,-0.241,-3.46,-3.08,0.108,-2.07,-1.81,-0.175,-2.58
AGTCACT,0.0552,-0.153,0.141,-0.64,-0.651,0.728,-3.08,0.0631,0.0811
CACTACC,-0.0911,-0.133,-0.328,-2.35,-0.00945,-0.502,-1.44,-0.00176,-0.0426
GTGTTCA,-0.00107,0.0649,0.385,0.967,0.0509,1.87,0.16,0.0584,0.119
CTGAGGG,-0.0375,0.00858,-0.0909,-0.215,0.0744,-0.77,0.231,0.0727,-0.0307
GCACAAT,0.027,0.0935,0.187,0.0576,0.114,0.234,-0.0826,0.147,0.124
CGGTACC,0.0112,0.0206,0.291,0.422,0.0477,0.819,-0.231,0.105,0.098
GCTAATT,-0.0907,-0.0297,-0.00258,-1.03,-0.0609,0.166,-0.358,-0.0408,-0.00524
TTATTAC,-3.39,-0.96,-0.596,-2.5,-0.129,-0.761,-3.31,-0.124,-0.534
CATGGAG,0.121,-0.0242,-0.59,0.167,0.0763,-0.7,0.24,0.2,-0.0225
TAGGCAT,0.0844,0.15,0.546,1.38,0.169,1.77,-0.281,0.238,0.165
AAGCTAA,0.0312,0.0606,0.12,0.291,0.102,0.687,0.0732,0.0154,0.176

Sequence,uncleaved DNA left (log2) [1],uncleaved DNA left (log2) [2],uncleaved DNA left (log2) [3],uncleaved DNA left (log2) [4],uncleaved DNA left (log2) [5],uncleaved DNA left (log2) [6],uncleaved DNA left (log2) [7],uncleaved DNA left (log2) [8],uncleaved DNA left (log2) [9]
GTTCAGT,0.0361,0.0701,0.32,0.819,-0.0222,1.39,0.132,0.172,0.0992
GTGCAAC,-0.0483,0.0706,0.361,0.885,0.0205,1.73,0.0189,0.0462,0.173
CTCACAC,0.0333,-0.0818,-0.00343,-0.572,0.0181,-0.601,0.0453,-0.104,-0.0704
ATCCGAC,0.031,-0.125,-0.036,0.0403,0.0209,-0.696,-0.0374,-0.129,-0.0838
ACAATAA,-0.0173,-0.0111,-0.202,-0.259,-0.0467,-0.787,0.182,-0.116,0.0273
CCCAGCA,-0.0554,0.098,-0.335,-0.883,-0.0654,-0.908,-0.146,0.152,-0.113
CCGTTCA,0.0222,-0.0354,0.359,-0.0974,-0.132,0.142,-0.0651,-0.0456,-0.112
AGTGATG,-0.0669,-0.00133,0.0295,0.528,-0.106,1.57,0.107,-0.114,-0.0504
CGTGCCA,-0.00228,-0.0323,0.165,0.232,0.00992,0.232,-0.0934,0.14,0.00626
GACATGC,0.0599,-0.0902,-0.0557,0.638,0.044,-0.367,0.141,0.00624,0.035
GCACCCT,-0.0562,0.00591,-0.0127,-1.11,-0.0811,0.132,-0.325,-0.0646,-0.0443
AAGGCCG,0.0477,0.108,-0.643,-0.423,0.129,-0.985,0.27,0.0965,0.0472
TCCCAAT,0.0321,0.0413,0.111,-0.349,-0.128,-0.206,0.00828,0.0636,-0.0976
ACGTCCG,-0.0886,-0.0395,-0.806,-0.387,0.0189,-1.12,0.134,-0.0923,-0.103
AGCATGA,-0.0833,-0.0809,-0.0777,0.532,-0.0588,0.878,-0.0403,-0.0888,-0.00233
AAGTTTC,-0.23,-0.038,-0.122,-0.723,-0.22,-0.624,-3.18,-0.084,-0.0995
GGTGAGC,0.153,0.154,0.558,1.3,-0.00344,1.58,0.202,0.116,0.14
GCCGCCC,-0.0234,-0.073,0.11,0.198,0.109,0.00246,-0.0205,-0.0669,-0.0395
CAGAAAA,-0.066,-0.0302,-0.0319,-0.247,-0.0705,-0.723,-0.338,-0.166,-0.0899
GAAATGG,0.102,0.0969,0.294,0.538,0.106,-0.00609,0.191,0.0268,0.174

Sequence,uncleaved DNA left (log2) [1],uncleaved DNA left (log2) [2],uncleaved DNA left (log2) [3],uncleaved DNA left (log2) [4],uncleaved DNA left (log2) [5],uncleaved DNA left (log2) [6],uncleaved DNA left (log2) [7],uncleaved DNA left (log2) [8],uncleaved DNA left (log2) [9]
TCTGCGA,0.0308,-0.0066,-0.695,0.413,0.0238,-0.806,0.0843,-0.00575,0.0289
AGTGTAG,-0.0365,0.000486,-0.525,-0.469,0.00567,-1.11,0.152,0.0494,-0.119
ATACATG,0.107,0.0799,-0.438,-0.606,-0.0196,-1.15,0.221,0.0277,0.0383
TATGTCT,-0.161,-0.495,-1.56,-2.75,-0.159,-1.04,-0.864,-0.124,-0.371
GCCTCAT,-0.0975,0.0209,0.115,0.461,-0.0433,0.66,-0.147,-0.112,0.101
AGGAGAT,0.0257,0.133,0.25,1.78,0.0169,1.82,0.0961,-0.0875,0.167
GGCGCCC,-0.098,0.0167,0.235,0.736,-0.0475,1.03,0.0384,-0.0842,-0.0232
CGAATTA,0.013,-0.0183,-0.13,-0.877,-0.0386,-0.429,-0.126,-0.0519,0.0628
TCCGCCT,-0.0266,-0.227,-0.0714,-1.4,-0.149,-0.469,-0.182,-0.18,-0.274
CAGGTTA,-0.0146,-0.101,0.141,-0.0261,-0.13,0.895,-0.2,-0.0973,-0.0553
TGGTTAG,0.0925,0.128,-0.591,-0.331,0.051,-0.879,0.143,0.148,0.0224
TAATTCT,-4.04,-2.22,-4.94,-3.66,-0.262,-4.52,-4.43,-3.52,-5.01
ACGATAG,0.0317,0.162,-0.619,-0.308,-0.0185,-1.1,0.253,-0.0498,-0.114
GCACAGA,0.0311,0.112,0.0903,0.532,0.0541,-0.00931,0.0964,0.0714,0.171
TCACTGC,-0.0494,-0.0617,-0.418,-0.546,-0.073,-0.892,0.0148,-0.0694,-0.137
TCTTACG,0.0968,0.0332,-0.861,-1.15,0.0396,-1.2,-0.0793,0.0703,-0.0311
TTTAGTA,-0.0758,-0.0292,0.00535,-0.746,-0.0869,-0.237,-0.382,-0.044,-0.105
CAGGGAC,0.0787,0.154,0.803,1.97,0.213,2.09,0.364,0.155,0.251
TCGTAAA,0.15,0.0536,0.137,-0.0526,0.0748,-0.255,0.0455,0.0503,0.0489
GTAGGTA,0.00314,0.116,0.342,0.926,-0.0372,1.55,0.0348,-0.0132,0.0204
